Shown are siRNA guide strands that differ only in the seed, positions 2 to 7.
How the values were obtained:
GL261 = assay: cell viability relative to siNT1 (ATP content); H4 human neuroglioma and GL261 mouse glioma; higher = less toxic; details: siRNA concentration 25 nM; 96 h; mouse
Protocol: (§1)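 Arrayed screen of all 4096 6mer seeds. Each seed sits at guide-strand positions 2-7 of a neutral 19mer siRNA backbone (siNT1-based, passenger strand 2'-O-methyl modified at positions 1-2 to block RISC loading, 3' DNA overhangs). The guide strand is built here as U + seed + ACAUGUAAACCA. Cells were reverse transfected in triplicate in 384-well plates (H4 at 10 nM, GL261 at 25 nM) with Lipofectamine RNAiMAX. Viability was read as ATP content (CellTiter-Glo) 96 h after transfection and normalised to siNT1 (%).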

H4 = assay: as above; details: siRNA concentration 10 nM; 96 h; human
Protocol: as §1
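Also: cells reverse transfected with siRNA duplexes via lipid reagent, ATP read by luminescence, triplicate wells, values scaled to mean viability with non-targeting control siNT1.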

UACUUAUACAUGUAAACCA
cell viability (GL261): 53.7%
cell viability (H4): 59%

UACUUCAACAUGUAAACCA
cell viability (GL261): 62.3%
cell viability (H4): 85%

UACUUCCACAUGUAAACCA
cell viability (GL261): 31.3%
cell viability (H4): 43%

UACUUCGACAUGUAAACCA
cell viability (GL261): 61%
cell viability (H4): 92.2%

UACUUCUACAUGUAAACCA
cell viability (GL261): 33.1%
cell viability (H4): 70.5%

UACUUGAACAUGUAAACCA
cell viability (GL261): 52.7%
cell viability (H4): 75.9%

UACUUGCACAUGUAAACCA
cell viability (GL261): 20.4%
cell viability (H4): 29.4%

UACUUGGACAUGUAAACCA
cell viability (GL261): 25.1%
cell viability (H4): 75%

UACUUGUACAUGUAAACCA
cell viability (GL261): 9.25%
cell viability (H4): 106%

UACUUUAACAUGUAAACCA
cell viability (GL261): 67.6%
cell viability (H4): 84.8%

UACUUUCACAUGUAAACCA
cell viability (GL261): 45.4%
cell viability (H4): 62.3%

UACUUUGACAUGUAAACCA
cell viability (GL261): 67.2%
cell viability (H4): 80.9%

UACUUUUACAUGUAAACCA
cell viability (GL261): 56.6%
cell viability (H4): 88.5%

UAGAAAAACAUGUAAACCA
cell viability (GL261): 43.3%
cell viability (H4): 103%

UAGAAACACAUGUAAACCA
cell viability (GL261): 37.8%
cell viability (H4): 98.8%

UAGAAAGACAUGUAAACCA
cell viability (GL261): 57.3%
cell viability (H4): 85.5%

UAGAAAUACAUGUAAACCA
cell viability (GL261): 46.4%
cell viability (H4): 78.9%

UAGAACAACAUGUAAACCA
cell viability (GL261): 46.7%
cell viability (H4): 78.5%

UAGAACCACAUGUAAACCA
cell viability (GL261): 26.9%
cell viability (H4): 67.9%

UAGAACGACAUGUAAACCA
cell viability (GL261): 52.4%
cell viability (H4): 81.7%

UAGAACUACAUGUAAACCA
cell viability (GL261): 28.3%
cell viability (H4): 83.3%

UAGAAGAACAUGUAAACCA
cell viability (GL261): 52.3%
cell viability (H4): 76.1%

UAGAAGCACAUGUAAACCA
cell viability (GL261): 17.9%
cell viability (H4): 60.2%

UAGAAGGACAUGUAAACCA
cell viability (GL261): 57.3%
cell viability (H4): 70.1%

UAGAAGUACAUGUAAACCA
cell viability (GL261): 58.7%
cell viability (H4): 70.5%

UAGAAUAACAUGUAAACCA
cell viability (GL261): 74%
cell viability (H4): 82.8%

UAGAAUCACAUGUAAACCA
cell viability (GL261): 47.7%
cell viability (H4): 76.3%

UAGAAUGACAUGUAAACCA
cell viability (GL261): 75%
cell viability (H4): 89%

UAGAAUUACAUGUAAACCA
cell viability (GL261): 71.3%
cell viability (H4): 80.2%

UAGACAAACAUGUAAACCA
cell viability (GL261): 49.1%
cell viability (H4): 84.2%

UAGACACACAUGUAAACCA
cell viability (GL261): 39%
cell viability (H4): 61%

UAGACAGACAUGUAAACCA
cell viability (GL261): 31.2%
cell viability (H4): 68.4%

UAGACAUACAUGUAAACCA
cell viability (GL261): 60.9%
cell viability (H4): 79.2%

UAGACCAACAUGUAAACCA
cell viability (GL261): 43.6%
cell viability (H4): 90.9%

UAGACCCACAUGUAAACCA
cell viability (GL261): 12.4%
cell viability (H4): 78.7%

UAGACCGACAUGUAAACCA
cell viability (GL261): 41.7%
cell viability (H4): 79.3%

UAGACCUACAUGUAAACCA
cell viability (GL261): 33.4%
cell viability (H4): 103%

UAGACGAACAUGUAAACCA
cell viability (GL261): 40.8%
cell viability (H4): 89.6%

UAGACGCACAUGUAAACCA
cell viability (GL261): 37%
cell viability (H4): 68.9%

UAGACGGACAUGUAAACCA
cell viability (GL261): 31.7%
cell viability (H4): 54.6%

UAGACGUACAUGUAAACCA
cell viability (GL261): 35.7%
cell viability (H4): 118%

UAGACUAACAUGUAAACCA
cell viability (GL261): 43.7%
cell viability (H4): 103%

UAGACUCACAUGUAAACCA
cell viability (GL261): 20.2%
cell viability (H4): 87%

UAGACUGACAUGUAAACCA
cell viability (GL261): 54.3%
cell viability (H4): 86.2%

UAGACUUACAUGUAAACCA
cell viability (GL261): 36.1%
cell viability (H4): 81.8%

UAGAGAAACAUGUAAACCA
cell viability (GL261): 48.9%
cell viability (H4): 91%

UAGAGACACAUGUAAACCA
cell viability (GL261): 30.5%
cell viability (H4): 76.8%
